# Publication PMC4336329 (PLoS ONE, 2015)
# Hit rate of the full screen: of about 310,000 compounds, about 2,200 (0.71%) showed an effect of 50% or more. The effect is printed as a negative number. The list shows a part of the results.
# Target: human ether-à-go-go-related gene (hERG) potassium channel (human, UniProt Q12809)
# Assay: primary screen, population patch clamp on CHO cells stably expressing hERG
# Chain of human ether-à-go-go-related gene (hERG) potassium channel (Q12809 whole entry, looked up): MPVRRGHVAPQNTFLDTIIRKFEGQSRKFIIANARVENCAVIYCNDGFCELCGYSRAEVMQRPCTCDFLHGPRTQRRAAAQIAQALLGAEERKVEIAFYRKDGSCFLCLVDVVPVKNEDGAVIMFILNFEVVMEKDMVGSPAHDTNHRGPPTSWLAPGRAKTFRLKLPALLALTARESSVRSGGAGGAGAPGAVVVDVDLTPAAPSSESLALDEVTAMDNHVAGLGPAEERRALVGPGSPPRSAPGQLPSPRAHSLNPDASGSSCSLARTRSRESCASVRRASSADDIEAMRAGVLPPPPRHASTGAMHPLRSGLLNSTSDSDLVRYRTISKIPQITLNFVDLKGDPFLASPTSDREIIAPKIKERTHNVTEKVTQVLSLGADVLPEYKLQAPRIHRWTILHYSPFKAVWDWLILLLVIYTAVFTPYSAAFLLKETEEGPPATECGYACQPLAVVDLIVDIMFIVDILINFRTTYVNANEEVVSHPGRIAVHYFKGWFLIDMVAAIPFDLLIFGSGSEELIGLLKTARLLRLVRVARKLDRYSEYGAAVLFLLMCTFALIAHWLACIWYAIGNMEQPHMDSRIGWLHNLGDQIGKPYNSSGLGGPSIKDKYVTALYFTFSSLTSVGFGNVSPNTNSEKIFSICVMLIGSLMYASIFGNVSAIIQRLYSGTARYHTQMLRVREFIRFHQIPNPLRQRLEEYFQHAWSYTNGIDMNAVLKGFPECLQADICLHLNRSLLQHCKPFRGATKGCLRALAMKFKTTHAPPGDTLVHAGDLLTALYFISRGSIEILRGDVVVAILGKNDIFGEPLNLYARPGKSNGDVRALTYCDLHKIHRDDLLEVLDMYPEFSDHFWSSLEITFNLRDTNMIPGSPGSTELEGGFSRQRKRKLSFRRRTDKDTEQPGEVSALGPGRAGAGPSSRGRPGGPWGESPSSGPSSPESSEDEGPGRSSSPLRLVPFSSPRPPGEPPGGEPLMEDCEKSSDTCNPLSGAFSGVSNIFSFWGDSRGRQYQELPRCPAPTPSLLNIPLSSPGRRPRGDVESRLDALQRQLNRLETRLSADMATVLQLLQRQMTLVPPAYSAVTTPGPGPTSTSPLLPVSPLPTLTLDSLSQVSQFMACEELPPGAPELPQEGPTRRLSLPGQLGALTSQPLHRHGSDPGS
row,Structure (SMILES),"hERG current change (%, negative = inhibition) at 1uM [%]"
1,Cc1ccc(S(=O)(=O)/C(C#N)=C/c2c[nH]c3ccccc23)cc1,3.4
2,Fc1cccc(NC(=S)NCC(c2cccnc2)N2CCOCC2)c1 (stereo not drawn),5.02
3,Fc1ccc2cnc(-c3ccccc3)c(-c3ccc(C(F)(F)F)cc3)c2c1,11.5
4,Cc1ccccc1C(=O)NC(=S)NC1CCS(=O)(=O)C1 (stereo not drawn),5.32
5,COc1ccc(C(=O)Nc2ccccc2C(=O)N2CCN(c3ccccc3)CC2)cc1,13.7
6,COc1cc2c(cc1OC)CN(CC(=O)Nc1ccc(S(=O)(=O)N3CCCC3)cc1)CC2,11
7,CCn1c(SCC(=O)Nc2ccccc2C)nc2nc3c(cc2c1=O)COC(C)(C)C3,8.88
8,Cc1ccc(S(=O)(=O)NC(=O)NC(C)Cc2ccccc2)cc1 (stereo not drawn),21.2
9,O=C(O)c1cc(=O)c2ccccc2o1,16.1
10,Cn1c(=O)[nH]c(=O)c2c1nc(N1CCOCC1)n2CC(O)COc1ccccc1 (stereo not drawn),-0.376
11,COc1ccc(OC)c(-c2csc(NC(=O)CN3C(=O)C4CCCCC4C3=O)n2)c1 (stereo not drawn),11.6
12,Cc1ccc(C(=O)Nc2ccc3nc(C)sc3c2)s1,14.8
13,Cc1cc2ncc(S(=O)(=O)C(C)(C)C)c(N)n2n1,11.3
14,CCN1CCN(CC(=O)Nc2ccc(Cl)c(S(=O)(=O)N(C)C)c2)CC1,7.32
15,CC(C)CN1CCN(Cc2cccc3cccnc23)CC1CCO (stereo not drawn),3.22
16,C[C@@H]1Cc2c(O)c(O)cc(O)c2C(=O)O1,15.4
17,Cl.Cn1c(O)c(C=NCCCN2CCCC2=O)c(=O)n(C)c1=O.O=C(O)C(=O)O,16.9
18,CC(SCc1cn2cc(Cl)ccc2n1)C(=O)O (stereo not drawn),12
19,COC(=O)C1=CN(C2CC2)C=C(C(=O)OC)C1c1ccc(C(=O)OC)cc1,20.6

row,Structure (SMILES),"hERG current change (%, negative = inhibition) at 1uM [%]"
1,Cc1ccc(NC(=O)c2cc(S(=O)(=O)N3CCOCC3)cn2C)cc1F,-5.36
2,CC(=O)OCC1(C)CN(c2ccccc2)N(C(C)=O)C1=O (stereo not drawn),1.84
3,CCc1ccc(S(=O)(=O)Nc2c(NC3CCCCC3)c3ccccc3oc2=O)cc1,8.84
4,CCOC(=O)C1CCCN(C(=O)C2CCCN(S(C)(=O)=O)C2)C1 (stereo not drawn),5.45
5,COc1ccc(N2CC(C(=O)N/N=C/c3c[nH]c4ccccc34)CC2=O)cc1 (stereo not drawn),15.1
6,COc1cccc(N2CCN(C(C)C(=O)NC34CC5CC(CC(C5)C3)C4)CC2)c1 (stereo not drawn),-2.17
7,CC1CN(C(=O)COC(=O)CSc2ccc(C(N)=O)cc2[N+](=O)[O-])CC(C)O1 (stereo not drawn),4.42
8,O=C1Cn2c(nc3ccccc32)N1c1ccccc1F,6.38
9,C=CCN1C(=S)CC(c2ccccc2)=Nc2ccccc21,17.4
10,CCc1ccc(C(=O)CSc2n[nH]c(-c3ccncc3)n2)cc1,12.9
11,COC(=O)CC1(C(=O)OC)Oc2ccc(Br)cc2C(=O)N1c1cc(Cl)c(Cl)cc1Cl (stereo not drawn),13.9
12,CC1C(=O)N2CCCc3cc(NS(C)(=O)=O)cc1c32 (stereo not drawn),7.05
13,CN(C(=O)COC(=O)c1sc2ccccc2c1Cl)C1CCCCC1,5.21
14,CC1CCN(c2ccc3nnc(CCC(=O)Nc4ccc(F)cc4)n3n2)CC1,-1.45
15,CCCC(CCC)C(=O)Nc1cccc(C(=O)O)c1,-11.2
16,COc1ccc(C(=O)c2oc3ccccc3c2NC(C)=O)cc1,5.32
17,Cn1cc(Cl)c(-c2n[nH]c(=S)n2-c2ccc(F)cc2)n1,11.4
18,COc1ccc(C(=O)c2cnc3cc4c(cc3c2C)OCO4)cc1,0.557
19,COc1ccccc1NC(=O)CN(c1ccccc1OC)S(=O)(=O)c1ccccc1,8.75

row,Structure (SMILES),"hERG current change (%, negative = inhibition) at 1uM [%]"
1,COc1cc(CN2CCNC(=O)C2CC(=O)N(C)CCC2CCOCC2)cc(OC)c1 (stereo not drawn),15.8
2,Cc1nc(SCC(=O)c2ccc(F)cc2)c([N+](=O)[O-])[nH]1,24.5
3,COC(=O)c1[nH]c2cc(OC)ccc2c1N,12.9
4,O=C(c1cc(-c2ccccc2)nc2ccccc12)N1N=C(C(F)F)CC1(O)C(F)F (stereo not drawn),-3.87
5,CN1C(=O)CSc2ccc(C(=O)O)cc21,2.74
6,CCN(CC(=O)Nc1ccccc1OC)C(=O)CSCc1ccc(C)cc1,12.4
7,O=[N+]([O-])c1cc(S(=O)(=O)N2CCCCC2)ccc1NCCN1CCOCC1,8.79
8,COc1ccccc1-c1nc(S(=O)(=O)c2ccccc2)c(N2CCCCC2)o1,17.3
9,Cc1nn(CC(=O)NCc2cccs2)c(=O)c2nn(-c3ccccc3)c(C)c12,12
10,CCCCOc1ccc(-c2nnc(-c3ccco3)o2)cc1,2.85
11,CC(=O)OC1(c2ccccc2)CCN(C)C2CCCCC21.Cl (stereo not drawn),2.93
12,CC1C/C(=C/c2ccncc2)C(=O)/C(=C/c2ccncc2)C1 (stereo not drawn),-10.4
13,CC(C)[C@H](Nc1nc(-c2ccccc2)nc2c1oc1ccccc12)C(=O)O.Cl,14.5
14,COc1cc2c(=O)n(CC3CCCO3)c(=O)n(CC(=O)Nc3ccc(F)cc3F)c2cc1OC (stereo not drawn),12.7
15,O=C(c1ccc(F)cc1)C(C(=O)N1CCCCC1)n1ccccc1=O (stereo not drawn),12.8
16,O=C(O)c1cccc(S(=O)(=O)NCCC(c2ccccc2)c2ccccc2)c1,7.91
17,Clc1ccc(Cc2noc(Cc3ccccc3)n2)cc1Cl,13.8
18,CCC1=NN2C(=N)/C(=C\c3cccn3-c3ccc(OC)cc3)C(=O)N=C2S1,8.05
19,O=C(CCNS(=O)(=O)c1cccs1)NCc1cccs1,22.6
